Some of the results follow. Cut-off read from the data, not from the text of the source: active = 3.2 or more and inactive = the rest. The signal is at background level for most entries.
B1: GH1_Y68 (peptide)
chain: PKEQKYSFLQN
B2: GDAP2_Y491_T489A_YF (peptide)
chain: PFFASYPPSPD
B3: GIGYF2_Y268 (peptide)
chain: DDERGYRRVRS
B4: GDAP2_Y491_YF (peptide)
chain: PFFTSYPPSPD
B5: GDNF_Y156_T154S (peptide)
chain: AAESTYDKILK
B6: GFAP_Y242 (peptide)
chain: EIRTQYEAMAS
B7: GDAP2_Y487 (peptide)
chain: RENGPYYTSYP
B8: GH1_Y68_K67R (peptide)
chain: PKEQRYSFLQN
B9: GDI1_Y93_L92P (peptide)
chain: VKMLPYTEVTR
B10: GJA1_Y137_K134E (peptide)
chain: IKEFKYGIEEH
B11: GDI1_Y93 (peptide)
chain: VKMLLYTEVTR
B12: GJA1_Y286_V289L (peptide)
chain: MSPPGYKLLTG
B13: GHR_Y226_Y226C (peptide)
chain: KVDKECEVRVR
B14: GJA1_Y286_T290N (peptide)
chain: MSPPGYKLVNG
B15: GHR_Y226_R229H (peptide)
chain: KVDKEYEVHVR
B16: GFAP_Y242_R239L (peptide)
chain: EILTQYEAMAS
B17: GIMAP6_Y176 (peptide)
chain: GSLEDYVRETN
B18: GJB1_Y243_R238H (peptide)
chain: HLSPEYKQNEI

molecular target: SHP2 C-SH2 domain E139D; test: enrichment score (SH2-bound / input frequency) (ratio); bacterial display of known human phosphotyrosine sites (pTyr-Var adds point mutants) read by sequencing; higher = stronger binding; tyrosines were phosphorylated by kinases first; conditions: peptide library: pTyr-Var
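Note: displayed peptides selected on beads carrying the immobilized SH2 domain, with library peptides lacking any tyrosine serving as negative controls.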

Enrichment score, inactive:
B1 0.714
B2 1.65
B3 0.351
B4 0.961
B5 0.703
B6 0.506
B7 0.758
B8 0.576
B9 1.13
B10 0.993
B11 1.88
B12 0.984
B13 0.676
B14 1.42
B15 0.655
B16 0.887
B17 0.646
B18 0.569

molecular target: SHP2 C-SH2 domain wild-type; test: as above; conditions: peptide library: pTyr-Var

Enrichment score, inactive:
B1 0.635
B2 0.913
B3 0.381
B4 0.967
B5 0.506
B6 0.422
B7 0.836
B8 0.692
B9 0.908
B10 0.902
B11 1.81
B12 0.902
B13 0.898
B14 1.16
B15 0.627
B16 0.688
B17 0.635
B18 0.64

molecular target: SHP2 N-SH2 domain L43F; test: as above; conditions: peptide library: pTyr-Var

Enrichment score, inactive:
B1 0.59
B2 0.985
B3 0.346
B4 1.3
B5 0.622
B6 0.603
B7 0.728
B8 0.721
B9 0.999
B10 0.954
B11 1.52
B12 0.952
B13 0.717
B14 1.11
B15 0.593
B16 0.771
B17 0.563
B18 0.654

molecular target: SHP2 N-SH2 domain T42A; test: as above; conditions: peptide library: pTyr-Var

Enrichment score, inactive:
B1 0.466
B2 1.21
B3 0.315
B4 1.03
B5 0.465
B6 0.447
B7 0.575
B8 0.659
B9 1.25
B10 0.81
B11 2.05
B12 0.737
B13 0.626
B14 1.03
B15 0.575
B16 0.763
B17 0.684
B18 0.761

molecular target: SHP2 N-SH2 domain T52S; test: as above; conditions: peptide library: pTyr-Var

Enrichment score, inactive:
B1 0.623
B2 1.54
B3 0.396
B4 1.21
B5 0.492
B6 0.498
B7 0.654
B8 0.522
B9 0.963
B10 0.894
B11 1.52
B12 0.925
B13 0.761
B14 1.36
B15 0.806
B16 0.754
B17 0.85
B18 0.458

molecular target: SHP2 N-SH2 domain wild-type; test: as above; conditions: peptide library: pTyr-Var

Enrichment score, inactive:
B1 0.84
B2 1.44
B3 0.378
B4 1.01
B5 0.503
B6 0.63
B7 0.576
B8 0.737
B9 0.928
B10 0.864
B11 1.7
B12 1.06
B13 0.874
B14 1.02
B15 0.732
B16 0.777
B17 0.624
B18 0.68
